According to the supplement of paper PMC11417369:
The list shows a part of the results.

Tested on: PfHDP1 homeodomain (GST-tagged)
Test: gcPBM binding intensity (ln(normalized median fluorescence intensity)); higher = stronger DNA binding
Summary of the method: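 GST-tagged P. falciparum DNA-binding domains produced in E. coli were incubated for 1 h on an Agilent 4 × 180k array of primer-extended double-stranded 36-bp intergenic genomic probes with negative controls. Binding intensity is the highest Masliner-normalised natural-log median intensity across replicate spots of either probe orientation, with bound protein detected by Alexa488 anti-GST antibody at 488 nm.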

Sequence	gcPBM binding intensity (ln)
AACAAATAAACAAAATTGGAAAATAAAAATATCAAA [CACACA_negctrl_site1125]	6.35
ATTTTAATAAAATATGTACACACATACACCCATATA [CACACA_site8326]	7.11
TGATATCTTAAGAAATGTACAAAGATATAACCATTT [XGTACX_site1913]	6.22
CATACATAAATATAAACATGCATATATTTTTTTTAT [TGCATGCA_site616]	6.33
TAAATAAAAAAAAATACACACATCTATATAAAATAT [CACACA_site3774]	6.3
GTATCAAAAGAATACACACACACATACCTATAAATA [CACACA_site7737]	6.85
AAAGGAAAAAAAGTAGCACACAAATATTTATAATAT [CACACA_site8772]	6.76
TGTATAACCTGTGTTACACACATTAAAATTTATATA [CACACA_site4449]	6.42
ATAAATGTGTTTATTTAACACACAAAAGAAAAAATA [CACACA_site8589]	6.6
GATATTTTTATTTGTTGTACTTAAGATAATAAATGA [XGTACX_site2891]	6.6
AAAAAAAAAAAAATACGTACACAAAAAATTGCAAAG [XGTACX_site5663]	8.69
AATATATTAAAAAAGCGTACAAGAATTGGAAAATGG [XGTACX_site6576]	7.08
ATATATTATCAACTTACACACAGAAAAATATAATAA [CACACA_site293]	6.53
GATATGTAAATAATATGTACATATTTATATTGTATT [XGTACX_site4052]	6.44
TTTAAAGGTGATAAAACACACGATTTAGAAATGTAT [CACACA_site3161]	6.46
AAAAAGAATGTGAACACACACATTGAATATAATTTA [CACACA_site1262]	6.23
TTTTTAGTAACATATAGTACATATATATATATATGT [XGTACX_site4780]	6.61
TTAATACAAATAAAAAGTACAAGTATCGAACTACTA [XGTACX_site6308]	6.03
ATAATATGAAACTCGTACGAGGTTGTCCCAAATATA [CACACA_negctrl_site1350]	6.6
TTATTTTTTCTTCAAATGTGAATTATTCATTTATTT [TGCATGCA_negctrl_site545]	6.38
AAAAAAAAAACACACACATGCACATCATATTATATA [TGCATGCA_site133]	7.84
GTTGTTATATAAAGGAGTACATAATAACACAAATAT [XGTACX_site615]	7

Sequence	gcPBM binding intensity (ln)
TTTTCTTGTAGTATAACAAAATATAGTAATATATAT [GTGCAC_negctrl_site609]	6.51
GATTTATTTCATATCACACATTTTGGCTATTTTGTG [CACACA_site5793]	6.39
AAAAAAAAAAAAAAAACACACATTTATAGTATATAT [CACACA_site1194]	6.7
CCATTTGGTATTATATGTACATATAATTTTTTTTTT [XGTACX_site157]	6.54
AATCCTTCATATGTAGTGCATATTAACAAAATAAAA [GTGCAC_site9500]	8.42
TCCAATTCTTTATTTTGTACACATTATGTGCATATG [XGTACX_site6290]	10.9
GGAATAACCAGACACACACACACATATATATATATA [CACACA_site3541]	9.21
TATATATAATATTATACACACATATCTGCATAATAT [CACACA_site4202]	7.05
AGATCATAATATTATACACACATTATATATATGTAA [CACACA_site8419]	7.15
TGGAAAGTTATTAACACACACATATAAATATTTATA [CACACA_site6173]	6.74
AAGTACCATATAGGCACACATATATATATATATATA [CACACA_site3282]	9.48
AAAAACCATTCGCACACACACATAATCTATAATATA [CACACA_site6782]	7.67
GTATATATGTATATGTGTACATATATTTTATAATAT [XGTACX_site5703]	6.46
AAAAACGAAAAAAATACACACCTGAAAAGATATGTA [CACACA_site4644]	6.05
AATATTTTGATGTGTACACATTAATACAGTTTTACA [CACACA_site5711]	7.04
TATATATATTAACTTGTGCGCAAAAAGATATAATTT [GTGCAC_site9672]	7.81
ATATGTATGTATGTCTCAAAATTTCATATTATATTA [CACACA_negctrl_site784]	6.23
TAGGATATTGAATAATGTACTTTATATATAATATAA [XGTACX_site7828]	6.08
AAGAAATAAAAAAAACGTACATATATACATACATAC [XGTACX_site3980]	7.3
AATATATATATTAAATGTACATTACATAATTATATA [XGTACX_site3450]	6.59
TGCAACAAAATAAACACACACACACTAGCACAAAAA [CACACA_site5805]	6.96
TAAATGAAAATATGTACACACTTGAAAACTTTTATG [CACACA_site7388]	6.61

Sequence	gcPBM binding intensity (ln)
TTTTTTTTTTTAGACACATGCATTTTTATAATTTTC [TGCATGCA_site843]	6.53
TCCTAATGCTACCACACACACAAAAACAAATAATAA [CACACA_site2610]	7.2
TTATAAGATTTATGTACACACATATACACAGCTCTA [CACACA_site6481]	6.51
AGTATTATATATATATGTACATAATATACATATATA [XGTACX_site8514]	6.28
ACATATTTATATTCTACACACTTATACTATAATACA [CACACA_site7204]	6.72
TAATTAATTTACATTTTAATTTTATACAAAATTTAT [CACACA_negctrl_site830]	6.29
ATGGAACTTAAAAATTGTACACATAAAATGGAGAAG [XGTACX_site1823]	7.16
GTTATACGCATCAACACACACATACAACGTGGTGTA [CACACA_site1188]	6.51
TGTTATTAGAAAAATGCACACCAAAAAAAAAAAAAA [CACACA_site8802]	9.12
ATATACATAATATATAATATAAATATATATATGGAA [CACACA_negctrl_site906]	5.94
GCTATAAATACAGACGCACACATATACATACAGATA [CACACA_site5778]	7.04
TGTCATTCCTCTTATTGTACAAAAATATTATAATAT [XGTACX_site1134]	7.26
TATTAAAATATTTATACACACATAATTTTGATAAAT [CACACA_site4486]	6.42
AACATATTAATGTACACACACCCACGCACAAACAAA [CACACA_site7320]	7.6
TAGGAGAAAAAAAAAAGTACCCACAACTATTATACT [XGTACX_site8195]	6.54
TGGTAATATCGATTCACACATATCAAAATAAAAAAA [CACACA_site4196]	6.35
TGACATATTATTAGGTGGTCACGTCTCCACGTCAAG [XGTACX_site7943]	6.47
TGTATAACATTTAGGTGTACAATTATATATAATATA [XGTACX_site8131]	6.82
TTGAGAAAAATTAATGGTACACATATTATAAGTATA [XGTACX_site6539]	6.69
TAATTGTACACATGCACACACAAATATTATAGATGT [CACACA_site6528]	9.85
AAGAAAAAAAAAAAAACACACATATATTTATTTATA [CACACA_site7042]	6.07
GAAAGAAAAAATGATGAATAGAGATCAAATCTATAT [XGTACX_negctrl_site28]	6.04

Sequence	gcPBM binding intensity (ln)
TATACACATAGACACACACACAAAAAAAAAAAAAAA [CACACA_site6338]	6.51
AAAATTATTTAGTAAGTGCAAAAAAAAAAAAAAAAA	8.72
AATTTGATTATAAATTGTACATATATATATTAAAAG [XGTACX_site5461]	6.64
TAAAAATAAATAAATACATGCACCAAAAATAAATTT [TGCATGCA_site801]	8.72
AAAAAAAAAAAACATACACACACATATATATATATA [CACACA_site8452]	9.19
ATTGTTAAATATAATACACACGTTTTTAAAAATATA [CACACA_site5239]	6.57
ATTGCCATTGTTAATGCATGTAACAATTCAGCTCAT [TGCATGCA_site56]	6.31
CTTTTGTATATTATATGTACACACAATAAGTTAATA [XGTACX_site1684]	6.53
ACATATATTTATATATGTACATATGATATATACATA [XGTACX_site6122]	6.18
TACATATAAACAATAACACACACCTAGGTACATGGA [CACACA_site8178]	6.49
AATTAACAAAAACACACACACACACCCACAAAAAAA [CACACA_site517]	6.85
TTTTTGTAAACCTACTTCATAATTATTTATATCTAT [XGTACX_negctrl_site599]	6.4
TAAAAATTTGATCAAACACACGTTGCATAAATTATA [CACACA_site6040]	8.2
AGGCTATAATACCATACACACATTTATAAAATAACA [CACACA_site6990]	6.69
TGAAATTAAATATATACACACATATATATTTATATG [CACACA_site3516]	6.39
AAACAAAAGGAAAACATATATATATTAAATGTATAT [CACACA_negctrl_site1663]	6.57
GCAAAATAACAATGTTACACTTATAAAATTGAGGCA [GTGCAC_negctrl_site68]	6.33
ATTTAGAATGTTCCTACACACCAAATTTAAGGGTGC [CACACA_site5320]	6.5
ATTACAAATTCTTTCAGTACATATAAAGAAAAAAAT [XGTACX_site7786]	6.59
ATTTATATTCCAATATGTACATATTTTCGTATAACC [XGTACX_site8507]	6.69
TTTTTTTTTCTCCATACACACTTGATAAAACTTTTT [CACACA_site4512]	6.63
TATTTATTAAGACACACACACACACGCACAAAATAA [CACACA_site6254]	7.39
